The list shows a part of the results.
Experiments:
Assay in all cases: glycan array binding signal (z-score within array); higher = stronger binding
Conditions in all cases: glycan notation: IUPAC condensed, linker removed
[1] = target: Neu5Ac(a2-3)Gal(b1-4)[Fuc(a1-3)]GlcNAc(b1-6)[Neu5Ac(a2-3)Gal(b1-3)]GalNAc
Procedure, shortened: (§1)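 Glycan array data came from 3228 arrays in the Consortium for Functional Glycomics database, and only arrays with an available protein sequence were kept. Glycan names were put into IUPAC-condensed notation, and columns mapping to the same glycan were averaged. The binding signal is a within-array Z-score, averaged across arrays of one protein sequence run at different concentrations or buffers and across linkers. A negative Z-score can be read as non-binding.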

[2] = target: Neu5Ac(a2-3)Gal(b1-4)[Fuc(a1-3)]GlcNAc6S
Procedure, shortened: as §1

[3] = target: Neu5Ac(a2-3)Gal6S(b1-4)GlcNAc
Procedure, shortened: as §1

[4] = target: Neu5Ac(a2-3)Gal6S(b1-4)[Fuc(a1-3)]GlcNAc
Procedure, shortened: as §1

[5] = target: Neu5Ac(a2-3)GalNAc
Procedure, shortened: as §1

[6] = target: Neu5Ac(a2-3)GalNAc(b1-4)GlcNAc
Procedure, shortened: as §1

[7] = target: Neu5Ac(a2-3)[GalNAc(b1-4)]Gal(b1-4)Glc
Procedure, shortened: as §1

[8] = target: Neu5Ac(a2-3)[GalNAc(b1-4)]Gal(b1-4)GlcNAc
Procedure, shortened: as §1

[9] = target: Neu5Ac(a2-3)[GalNAc(b1-4)]Gal(b1-4)GlcNAc(b1-3)GalNAc
Procedure, shortened: as §1

[10] = target: Neu5Ac(a2-3)[Neu5Ac(a2-6)]GalNAc
Procedure, shortened: as §1

[11] = target: Neu5Ac(a2-6)Gal
Procedure, shortened: as §1

[12] = target: Neu5Ac(a2-6)Gal(b1-3)GlcNAc(b1-3)[Gal(b1-4)GlcNAc(b1-6)]Gal(b1-4)Glc
Procedure, shortened: as §1

[13] = target: Neu5Ac(a2-6)Gal(b1-4)Glc
Procedure, shortened: as §1

[14] = target: Neu5Ac(a2-6)Gal(b1-4)GlcNAc
Procedure, shortened: as §1

[15] = target: Neu5Ac(a2-6)Gal(b1-4)GlcNAc(b1-2)Man
Procedure, shortened: as §1

[16] = target: Neu5Ac(a2-6)Gal(b1-4)GlcNAc(b1-2)Man(a1-3)Man(b1-4)GlcNAc(b1-4)GlcNAc
Procedure, shortened: as §1

[17] = target: Neu5Ac(a2-6)Gal(b1-4)GlcNAc(b1-2)Man(a1-3)[Gal(b1-4)GlcNAc(b1-2)Man(a1-6)]Man(b1-4)GlcNAc(b1-4)GlcNAc
Procedure, shortened: as §1

[18] = target: Neu5Ac(a2-6)Gal(b1-4)GlcNAc(b1-2)Man(a1-3)[GlcNAc(b1-2)Man(a1-6)]Man(b1-4)GlcNAc(b1-4)GlcNAc
Procedure, shortened: as §1

[19] = target: Neu5Ac(a2-6)Gal(b1-4)GlcNAc(b1-2)Man(a1-3)[GlcNAc(b1-4)][Neu5Ac(a2-6)Gal(b1-4)GlcNAc(b1-2)Man(a1-6)]Man(b1-4)GlcNAc(b1-4)GlcNAc
Procedure, shortened: as §1

[20] = target: Neu5Ac(a2-6)Gal(b1-4)GlcNAc(b1-2)Man(a1-3)[Man(a1-6)]Man(b1-4)GlcNAc(b1-4)GlcNAc
Procedure, shortened: as §1

[21] = target: Neu5Ac(a2-6)Gal(b1-4)GlcNAc(b1-2)Man(a1-3)[Neu5Ac(a2-3)Gal(b1-4)GlcNAc(b1-2)Man(a1-6)]Man(b1-4)GlcNAc(b1-4)GlcNAc
Procedure, shortened: as §1

[22] = target: Neu5Ac(a2-6)Gal(b1-4)GlcNAc(b1-2)Man(a1-3)[Neu5Ac(a2-6)Gal(b1-4)GlcNAc(b1-2)Man(a1-6)]Man(b1-4)GlcNAc(b1-4)GlcNAc
Procedure, shortened: as §1

[23] = target: Neu5Ac(a2-6)Gal(b1-4)GlcNAc(b1-2)Man(a1-3)[Neu5Ac(a2-6)Gal(b1-4)GlcNAc(b1-2)Man(a1-6)]Man(b1-4)GlcNAc(b1-4)[Fuc(a1-6)]GlcNAc
Procedure, shortened: as §1

[24] = target: Neu5Ac(a2-6)Gal(b1-4)GlcNAc(b1-2)Man(a1-6)Man(b1-4)GlcNAc(b1-4)GlcNAc
Procedure, shortened: as §1

[25] = target: Neu5Ac(a2-6)Gal(b1-4)GlcNAc(b1-2)Man(a1-6)[Gal(b1-4)GlcNAc(b1-2)Man(a1-3)]Man(b1-4)GlcNAc(b1-4)GlcNAc
Procedure, shortened: as §1

[26] = target: Neu5Ac(a2-6)Gal(b1-4)GlcNAc(b1-2)Man(a1-6)[GlcNAc(b1-2)Man(a1-3)]Man(b1-4)GlcNAc(b1-4)GlcNAc
Procedure, shortened: as §1

[27] = target: Neu5Ac(a2-6)Gal(b1-4)GlcNAc(b1-2)Man(a1-6)[Man(a1-3)]Man(b1-4)GlcNAc(b1-4)GlcNAc
Procedure, shortened: as §1

[28] = target: Neu5Ac(a2-6)Gal(b1-4)GlcNAc(b1-2)[Neu5Ac(a2-6)Gal(b1-4)GlcNAc(b1-4)]Man(a1-3)[GlcNAc(b1-4)][Neu5Ac(a2-6)Gal(b1-4)GlcNAc(b1-2)[Neu5Ac(a2-6)Gal(b1-4)GlcNAc(b1-6)]Man(a1-6)]Man(b1-4)GlcNAc(b1-4)GlcNAc
Procedure, shortened: as §1

[29] = target: Neu5Ac(a2-6)Gal(b1-4)GlcNAc(b1-2)[Neu5Ac(a2-6)Gal(b1-4)GlcNAc(b1-4)]Man(a1-3)[GlcNAc(b1-4)][Neu5Ac(a2-6)Gal(b1-4)GlcNAc(b1-4)Man(a1-6)]Man(b1-4)GlcNAc(b1-4)GlcNAc
Procedure, shortened: as §1

[30] = target: Neu5Ac(a2-6)Gal(b1-4)GlcNAc(b1-2)[Neu5Ac(a2-6)Gal(b1-4)GlcNAc(b1-6)]Man(a1-6)[Neu5Ac(a2-6)Gal(b1-4)GlcNAc(b1-2)Man(a1-3)][GlcNAc(b1-4)]Man(b1-4)GlcNAc(b1-4)GlcNAc
Procedure, shortened: as §1

[31] = target: Neu5Ac(a2-6)Gal(b1-4)GlcNAc(b1-3)Gal(b1-3)GlcNAc
Procedure, shortened: as §1

[32] = target: Neu5Ac(a2-6)Gal(b1-4)GlcNAc(b1-3)Gal(b1-4)GlcNAc
Procedure, shortened: as §1

[33] = target: Neu5Ac(a2-6)Gal(b1-4)GlcNAc(b1-3)Gal(b1-4)GlcNAc(b1-2)Man(a1-3)[Neu5Ac(a2-6)Gal(b1-4)GlcNAc(b1-3)Gal(b1-4)GlcNAc(b1-2)Man(a1-6)]GalNAc
Procedure, shortened: as §1

[34] = target: Neu5Ac(a2-6)Gal(b1-4)GlcNAc(b1-3)Gal(b1-4)GlcNAc(b1-3)Gal(b1-4)GlcNAc
Procedure, shortened: as §1

[35] = target: Neu5Ac(a2-6)Gal(b1-4)GlcNAc(b1-3)Gal(b1-4)GlcNAc(b1-3)Gal(b1-4)GlcNAc(b1-2)Man(a1-3)[Neu5Ac(a2-6)Gal(b1-4)GlcNAc(b1-3)Gal(b1-4)GlcNAc(b1-3)Gal(b1-4)GlcNAc(b1-2)Man(a1-6)]GalNAc
Procedure, shortened: as §1

[36] = target: Neu5Ac(a2-6)Gal(b1-4)GlcNAc(b1-3)Gal(b1-4)GlcNAc(b1-3)GalNAc
Procedure, shortened: as §1

[37] = target: Neu5Ac(a2-6)Gal(b1-4)GlcNAc(b1-3)Gal(b1-4)GlcNAc(b1-3)[Neu5Ac(a2-6)Gal(b1-4)GlcNAc(b1-3)Gal(b1-4)GlcNAc(b1-6)]GalNAc
Procedure, shortened: as §1

[38] = target: Neu5Ac(a2-6)Gal(b1-4)GlcNAc(b1-3)Gal(b1-4)GlcNAc(b1-6)[Gal(b1-3)]GalNAc
Procedure, shortened: as §1

[39] = target: Neu5Ac(a2-6)Gal(b1-4)GlcNAc(b1-3)Gal(b1-4)[Fuc(a1-3)]GlcNAc(b1-3)Gal(b1-4)[Fuc(a1-3)]GlcNAc
Procedure, shortened: as §1

[40] = target: Neu5Ac(a2-6)Gal(b1-4)GlcNAc(b1-3)GalNAc
Procedure, shortened: as §1

[41] = target: Neu5Ac(a2-6)Gal(b1-4)GlcNAc(b1-3)[Neu5Ac(a2-6)Gal(b1-4)GlcNAc(b1-6)]GalNAc
Procedure, shortened: as §1

B1: NPA (Narcissus pseudonarcissus), C0HM45 (protein)
chain: DNILYSGETLSPGEFLNNGRYVFIMQEDCNLVLYDVDKPIWATNTGGLDRRCHLSMQSDGNLVVYSPRNNPIWASNTGGENGNYVCVLQKDRNVVIYGTARWATGTNIH
glycan array binding signal (z-score) [1]: -0.105
glycan array binding signal (z-score) [2]: -0.161
glycan array binding signal (z-score) [3]: -0.166
glycan array binding signal (z-score) [4]: -0.158
glycan array binding signal (z-score) [5]: -0.143
glycan array binding signal (z-score) [6]: -0.158
glycan array binding signal (z-score) [7]: -0.159
glycan array binding signal (z-score) [8]: -0.154
glycan array binding signal (z-score) [9]: -0.081
glycan array binding signal (z-score) [10]: -0.159
glycan array binding signal (z-score) [11]: -0.159
glycan array binding signal (z-score) [12]: -0.144
glycan array binding signal (z-score) [13]: -0.145
glycan array binding signal (z-score) [14]: -0.15
glycan array binding signal (z-score) [15]: -0.149
glycan array binding signal (z-score) [16]: -0.137
glycan array binding signal (z-score) [17]: -0.147
glycan array binding signal (z-score) [18]: -0.151
glycan array binding signal (z-score) [19]: -0.156
glycan array binding signal (z-score) [20]: 0.006
glycan array binding signal (z-score) [21]: -0.142
glycan array binding signal (z-score) [22]: -0.161
glycan array binding signal (z-score) [23]: -0.137
glycan array binding signal (z-score) [24]: -0.148
glycan array binding signal (z-score) [25]: 0.038
glycan array binding signal (z-score) [26]: -0.1
glycan array binding signal (z-score) [27]: 3.41
glycan array binding signal (z-score) [28]: -0.144
glycan array binding signal (z-score) [29]: -0.152
glycan array binding signal (z-score) [30]: -0.157
glycan array binding signal (z-score) [31]: -0.15
glycan array binding signal (z-score) [32]: -0.16
glycan array binding signal (z-score) [33]: -0.117
glycan array binding signal (z-score) [34]: -0.141
glycan array binding signal (z-score) [35]: 0.054
glycan array binding signal (z-score) [36]: -0.143
glycan array binding signal (z-score) [37]: 0.01
glycan array binding signal (z-score) [38]: -0.124
glycan array binding signal (z-score) [39]: -0.11
glycan array binding signal (z-score) [40]: -0.124
glycan array binding signal (z-score) [41]: -0.15

Reference: the supplement of paper PMC8728848
